The chains are these.
B1: TPR 5TU (parent)
chain: GGAUCUUCUCGAUCUAACAAAAAAGACAAAUCUGCCACAAAGCUUGAGAGCAUCUUCGGAUGCAGAGGCGGCAGCCUUCGGUGGCGCGAUAGCGCCAACGUUCUCAACUAUGACACGCAAAACGCGUGCUCCGUUGAAUGGAGUUUAUCAUG

The text below walks through data of the RNAGym collection of RNA variant scans (doi:10.1073/pnas.2313332121).

Variants at the background level are over-represented here.

Variants of B1 are the subject of the data set. In words: polymerase ribozyme fitness, log enrichment relative to wild type (log ratio); higher = more active; in vitro selection for triplet polymerase activity. The procedure, abridged: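 Fitness measures genotype enrichment against wild-type enrichment on a logarithmic scale, with inverse-variance-weighted averaging of replicates. The logarithm is base 2, and genotypes were kept only with ≥10 input reads and ≥1 read per output in Illumina sequencing. The sequenced libraries came from one triplicate in vitro selection round, including frozen incubation at −7 °C, of PCR-built, transcribed mutant libraries of each subunit of a heterodimeric triplet polymerase ribozyme.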
Regarding GGAUCUUCUCUAUCUAACAACAAAGACAAAUCGGCAACAAAGCUUGAGAGCAUCUUCGGAUGCAGAGGCGGCAGCCUUCGGUGGGGCGAUAGCGCCAACGUUCUCAACUAUGACACGCAAAACGCGUGCUCCGUUGAAUGGAGUUUAUCAUG [G11U A21C U33G C36A C85G], the “polymerase ribozyme fitness (log ratio)” value was no more than -4.2.

Regarding GGAUCUUCUCUAUCUAACAACAAAGACAAAUCUGCCUCAAAGCUUGAGAGCAUCUUCGGAUGCAGGGGCGGCAGCCUUCGGUGGCGCGAUAGCGACAACGUUCUCAACUAUGAGAGGCAAAACGCGUGCUCCGUUGAAUGGAGUUUAUCAUG [G11U A21C A37U A66G C95A C114G C116G], the “polymerase ribozyme fitness (log ratio)” value was no more than -4.2.

With GGAUCUUCUCUAUCUAACCAAAAAGACAAAUCUGCCACAAAGCUUGAGAGCAUCUUCGGAUGCAGAGACGGCAACCUUCGGUGGCGAGAUAGCGCCAACGUUCUCAACUAUGACACGCAAAACGCGUGCUCCGUUGAAUGGAGUUUAUGAUG [G11U A19C G68A G74A C87A C149G], the “polymerase ribozyme fitness (log ratio)” value was no more than -4.2.

In the case of GGAUCUUCUCCAGCUAACAAUAAAGACAACUCUGCCACAAAGCUUGAGAGCAUCUUCCGAUGCAGAGGCGGCAGCCUUCGGUGGGGCGAUAGCGCCAACGUUCUCAACUAUGACACGCAAAACGCGUGCUCCGUUGAAUGGAGUUUAUCAUG [G11C U13G A21U A30C G58C C85G], the “polymerase ribozyme fitness (log ratio)” value was no more than -4.2.

Turning to GGAUCUUCUCUAUCUAACAGAAAUGACAAAUCUGCCACAAAGCUUGAGAACAUCUUCGGAUGCAGAGGCGGCAGCCUUCGGUGGCGCGAUAGCGCCAACGUUCUCAACUAUGACACGCAAAACGGGUGCUCCGUUUAAUGGAGUUUAUCAUG [G11U A20G A24U G50A C125G G136U], the “polymerase ribozyme fitness (log ratio)” value is no more than -4.2.

In the case of GGAUCUUCUCCAUCUAACAAAAAAGACAAAUCUGCCACAAAGCUUGAGAGCAACUUCGGAUGCAGAGGCGGGAGCCUUAGGAGGCGCGAGAGCGCCAACGUUCUCCACUAUGACACGCAAAACGCGUGCUCCGUUGAAUGGAGUUUAUCAUG [G11C U53A C72G C79A U82A U90G A106C], the “polymerase ribozyme fitness (log ratio)” value is no more than -4.2.

With GGAUCUUCUCUAUCUAACAACAAAGACAAAUCUGCCACAAAGCUUGAGAGCUUCUUCGGAUGCAGAGGUGGCAGGCUUCGGUGGCGCGAUAGGGCCAACGUUCUCUACUAUGACACGCAAAACGCGUGCUCCCUUGAAUGGAGUUUAUCAUG [G11U A21C A52U C69U C75G C93G A106U G133C], the “polymerase ribozyme fitness (log ratio)” value was no more than -4.2.

Turning to GGAUCUUCUCCAUCGAACAAAAAAGACAAAUCUGCCACACAGCUUGAGAGCAUCUUCGGAUGCAGAGGCGGCAGCCUUCGGUGGCGAGAUAGCGCCAACGUUCUCAACUAUGACACGCAAAACGCGUGCUCCGUUGAAUGGAGUUUAGCAUG [G11C U15G A40C C87A U148G], the “polymerase ribozyme fitness (log ratio)” value is no more than -4.2.

Regarding GGAUCUUCUCUAUCUACCAAUAAAGACAAAUCUGCCACAAAGCUUGAGAGCAUCUUCGGAUGCAGAGGCGGCAGCCUUCGGUGUCGCGAUAGCGCCACCGUUCUCAACUAUGACACGCAAAACGCGUGCUCCGUUGAAUGGACUUUAUCAUG [G11U A17C A21U G84U A98C G143C], the “polymerase ribozyme fitness (log ratio)” value is no more than -4.2.

For GGAUCUUCUCUGUCUAACAAAAAAGACAAAUCUGCCACAAACCUUGAGAGCAUCUUCGGAUGCAGAGGCGGCAGCCUUCGGUGGCGAGAUAGCGCCAAAGUUCUCAACUAUGACACGCAAGACGAGUGCUCCGUUGAAUGGAGUUUAUCAUG [G11U A12G G42C C87A C99A A121G C125A], the “polymerase ribozyme fitness (log ratio)” value was no more than -4.2.

As to GGAUCUUCUCUAUCUAACACAAAAGACAAAUCUGCCACAACGCUUGAGAGCAUCUUCGGAUGUAGAGGCGGCAGCCUUCGGUGGCGCGAUAACGCCAACGUUCUCAACUAUGACAGGCAAAACGCGUGCUCCGUUGAAUGGAGUUUAUCAUG [G11U A20C A41C C63U G92A C116G], the “polymerase ribozyme fitness (log ratio)” value is no more than -4.2.

In the case of GGAUCUUCUCUAUCUAGCAAAAAAGACAAAUCUGCCACUCAGCUUGAGAGCAUCUUCGGAUGCAGAGACGGCAGCCUUCGGUGGCGCGAUAACGCCAACGUUCUCGACUAUGACUCGCAAAACGCGUGCUCCGUUGAAUGGAUUUUAUCAUG [G11U A17G A39U A40C G68A G92A A106G A115U G143U], the “polymerase ribozyme fitness (log ratio)” value is no more than -4.2.

Take GGAUCUUCUCUAUCUUACAAAAAAGACAAAUCUGCAACAAAGCUUGAGAGCAUCUUCUGAUGCAGAGGCGGCAGCCUUCGGUGGCGCGAUAUUGCCAACGUUCUCAACUAUGACACGCAAAACGCGUGCUCCGUUGAAUGGAGUUUAUCAUG [G11U A16U C36A G58U G92U C93U]: the “polymerase ribozyme fitness (log ratio)” value is no more than -4.2.

Take GGAUCUUCUCCAUCUAACAAAAAAGACAAACCGGCCACAUAGCUUGAGAGCAUCUUCGGAUGCAGAGGCGGCAGCCGUCGGUGGCGCGAUAGCGCCAACGUUCUCAACUAUGACACGCAAAACGCGUGCUCCGUUGAAUGGAGUUUAUCAUG [G11C U31C U33G A40U U77G]: the “polymerase ribozyme fitness (log ratio)” value was no more than -4.2.

For GGAUCUUCUCCAUCUAACAAAAAAGACAAAUCUGCCACAAAGCUUGAGAGCAUCUUCGGAAGCAGAAGCGGCAGCCUUCGGUGGCGCGAUAGCCCCAACGUUCUCAACUAUGACACGCAAAACGCGUGCUCCGUUGAAUGGAGUGUUUCAUG [G11C U61A G67A G94C U145G A147U], the “polymerase ribozyme fitness (log ratio)” value is no more than -4.2.

As to GGAUCUUCUCCAACUAACAAAAAAGACAAAUCUGCCACAAAGCUUGAGAGCAUCUUCGGAUGCUGAGGCGGCACCCUUCGGUGGUGCGAUAGCGCGAACGUCCUCAACUAUGACACGCAAAACGCGUGCUCCGUUGAAUGGAGUUUAUCAUG [G11C U13A A64U G74C C85U C96G U102C], the “polymerase ribozyme fitness (log ratio)” value is no more than -4.2.

As for GGAUCUUCUCUAUCUCACAAAAAGGACAAAUCUGCCACAAAGCUUGAGAGCAUCUUCCGAUGCAGAGGCGGCAGCCUUCGGUGGCGAGAUAGCGCCAAUGUUCUCAACUAUGACACGCAAAACGCGUGCUCCGUUGAAUGGAGUUUAUCAUG [G11U A16C A24G G58C C87A C99U], the “polymerase ribozyme fitness (log ratio)” value is no more than -4.2.

Regarding GGAUCUUCUCCAUCCAACAAAAAAGACAAAUCUGCCACAAAGCUUGAGAGCAUCUUCGGAUGCAGAGGCGGCAGCCUUAGGUGGCGCGAUAGCGCAAACGUUCUCAACUAUGACACGCAAAACGCGUGCUCCGUUGAAUGGAGUUUAUCAUG [G11C U15C C79A C96A], the “polymerase ribozyme fitness (log ratio)” value is no more than -4.2.

GGAUCUUCUCUAUCUAACAACAACGACAAAUCUGCCACAAAGCUUGAGAGCAUCUUCGGAUGCAGCGACGGCAGCCUUCGGUGGCGCGAUAGCGCUAACGUUCUCAACUAUGACACGCAAAACGCGUGCUCCGUUGAAUGGAGUUUAUCAUG [G11U A21C A24C A66C G68A C96U]: the “polymerase ribozyme fitness (log ratio)” value is no more than -4.2.
